Reference: the supplement of paper PMC4967469
By IC50 is meant the dose at which the fit gives 50% viability; a limit (>, <) means that the fit lies beyond the doses tested. AUC sums up the same curve from the lowest dose to the 256-fold higher top dose; the more sensitive the line, the further below 1. Any top dose called inferred comes from the curve model; the source does not state it.

Experiments:
PD-173074 = compound: CCN(CC)CCCCNc1ncc2cc(-c3cc(OC)cc(OC)c3)c(NC(=O)NC(C)(C)C)nc2n1 [PD-173074]; assay: Viability of human cancer cell lines after 72 h of drug (GDSC screen); conditions: top dose 2 µM; top dose inferred
Description: (§1)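 Human cancer cell lines in 384-well plates, medium with 10% serum, drug for 72 h over a 256-fold dose range (nine 2-fold or five 4-fold steps up to the top dose). Adherent lines were fixed and stained with the nucleic acid dye Syto60, suspension lines read with resazurin; signal relative to control wells, capped at 0 and 100%. One two-parameter sigmoid per drug and line, fitted in a mixed model over all curves with the slope shared within a line.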

SB590885 = compound: CN(C)CCOc1ccc(-c2nc(-c3ccncc3)c(-c3ccc4c(c3)CC/C4=N\O)[nH]2)cc1 [SB590885]; assay: as above; conditions: top dose 5 µM; top dose inferred
Description: as §1

Cell Line	AUC (PD-173074)	IC50 (PD-173074)	AUC (SB590885)	IC50 (SB590885)
BT-483 (breast, adherent)	0.97	> 2000 nM	0.978	> 5000 nM
LN-18 (glioma, adherent)	0.994	> 2000 nM	0.994	> 5000 nM
NUGC-4 (stomach, adherent)	0.988	> 2000 nM	0.969	> 5000 nM
DBTRG-05MG (glioma, adherent)	0.98	> 2000 nM	0.908	> 5000 nM
HT55 (large intestine, adherent)	0.99	> 2000 nM	0.99	> 5000 nM
NCI-H1105 (small cell lung carcinoma, suspension)	0.993	> 2000 nM	0.993	> 5000 nM
KON (head and neck, adherent)	0.921	> 2000 nM	0.912	> 5000 nM
NCI-H1341 (small cell lung carcinoma, suspension)	0.981	> 2000 nM	0.992	> 5000 nM
NCI-H146 (small cell lung carcinoma, suspension)	0.976	> 2000 nM	0.995	> 5000 nM
TOV-112D (ovary, adherent)	0.927	> 2000 nM	0.946	> 5000 nM
HuP-T4 (pancreas, adherent)	0.984	> 2000 nM	0.984	> 5000 nM
MDA-MB-468 (breast, adherent)	0.984	> 2000 nM	0.975	> 5000 nM
MOG-G-CCM (glioma, adherent)	0.931	> 2000 nM	0.983	> 5000 nM
TYK-nu (ovary, adherent)	0.954	> 2000 nM	0.772	2060 nM
MIA-PaCa-2 (pancreas, adherent)	0.966	> 2000 nM	0.95	> 5000 nM
NCI-H650 (lung adenocarcinoma, adherent)	0.986	> 2000 nM	0.964	> 5000 nM
JHU-022 (head and neck, adherent)	0.972	> 2000 nM	0.979	> 5000 nM
OV-7 (ovary, adherent)	0.916	> 2000 nM	0.846	> 5000 nM
SUIT-2 (pancreas, adherent)	0.954	> 2000 nM	0.983	> 5000 nM
HCC-366 (non-small cell lung carcinoma, adherent)	0.988	> 2000 nM	0.988	> 5000 nM
786-0 (kidney, adherent)	0.981	> 2000 nM	0.971	> 5000 nM
KP-3 (pancreas, adherent)	0.984	> 2000 nM	0.984	> 5000 nM
ESO51 (oesophagus, semi-adherent)	0.945	> 2000 nM	0.93	> 5000 nM
SK-N-AS (neuroblastoma, adherent)	0.982	> 2000 nM	0.949	> 5000 nM
MKN7 (stomach, adherent)	0.943	> 2000 nM	0.956	> 5000 nM

Cell Line	AUC (PD-173074)	IC50 (PD-173074)	AUC (SB590885)	IC50 (SB590885)
NCI-H727 (lung carcinoid, adherent)	0.967	> 2000 nM	0.858	> 5000 nM
OVKATE (ovary, adherent)	0.974	> 2000 nM	0.979	> 5000 nM
SW900 (lung squamous cell carcinoma, adherent)	0.954	> 2000 nM	0.983	> 5000 nM
HeLa (cervix, adherent)	0.945	> 2000 nM	0.989	> 5000 nM
CAL-39 (cervix, adherent)	0.976	> 2000 nM	0.986	> 5000 nM
KYSE-410 (oesophagus, adherent)	0.98	> 2000 nM	0.971	> 5000 nM
SKN (uterus, adherent)	0.861	> 2000 nM	0.974	> 5000 nM
BICR10 (head and neck, adherent)	0.886	> 2000 nM	0.985	> 5000 nM
CAL-78 (chondrosarcoma, adherent)	0.823	1410 nM	0.986	> 5000 nM
NUGC-3 (stomach, adherent)	0.975	> 2000 nM	0.964	> 5000 nM
IGR-1 (melanoma, adherent)	0.99	> 2000 nM	0.931	> 5000 nM
NCI-H522 (lung adenocarcinoma, adherent)	0.979	> 2000 nM	0.977	> 5000 nM
NCI-H838 (lung adenocarcinoma, adherent)	0.948	> 2000 nM	0.987	> 5000 nM
MFE-280 (endometrium, adherent)	0.957	> 2000 nM	0.982	> 5000 nM
JHH-7 (liver, adherent)	0.925	> 2000 nM	0.907	> 5000 nM
KYSE-520 (oesophagus, adherent)	0.932	> 2000 nM	0.978	> 5000 nM
KARPAS-620 (haematopoietic neoplasm, suspension)	0.991	> 2000 nM	0.99	> 5000 nM
CAL-12T (non-small cell lung carcinoma, adherent)	0.971	> 2000 nM	0.96	> 5000 nM
MKN28 (stomach, adherent)	0.986	> 2000 nM	0.982	> 5000 nM
T47D (breast, adherent)	0.977	> 2000 nM	0.978	> 5000 nM
SiHa (cervix, adherent)	0.986	> 2000 nM	0.987	> 5000 nM
NCI-H2085 (lung adenocarcinoma, adherent)	0.968	> 2000 nM	0.977	> 5000 nM
MC-IXC (neuroblastoma, adherent)	0.996	> 2000 nM	0.995	> 5000 nM
H4 (glioma, adherent)	0.95	> 2000 nM	0.948	> 5000 nM
